# The supplement of paper PMC8728848
# The list shows a part of the results.
# B1: AAL (Aleuria aurantia) (protein)
# chain: MPTEFLYTSKIAAISWAATGGRQQRVYFQDLNGKIREAQRGGDNPWTGGSSQNVIGEAKLFSPLAAVTWKSAQGIQIRVYCVNKDNILSEFVYDGSKWITGQLGSVGVKVGSNSKLAALQWGGSESAPPNIRVYYQKSNGSGSSIHEYVWSGKWTAGASFGSTVPGTGIGATAIGPGRLRIYYQATDNKIREHCWDSNSWYVGGFSASASAGVSIAAISWGSTPQIRVYWQKGREELYEAAYGGSWNTPGQIKDASRPTPSLPDTFIAANSSGNIDISVFFQASGVSLQQWQWISGKGWSIGAVVPTGTPAGW
# Columns and labels:
# Assay in all cases: glycan array binding signal (z-score within array); higher = stronger binding
# Settings in all cases: glycan notation: IUPAC condensed, linker removed; mutation: N224Q
# Gal(a1-3)Gal(b1-4)GlcNAc = molecular target: Gal(a1-3)Gal(b1-4)GlcNAc
# Outline: (§1)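 The Consortium for Functional Glycomics database supplied 3228 glycan arrays, of which those lacking an available protein sequence were dropped. The binding signal, a within-array Z-score, was averaged across arrays of the same protein sequence and across linkers. Negative scores can be read as non-binding.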
# [1] = molecular target: Gal(a1-3)Gal(b1-4)GlcNAc(b1-2)Man
# Outline: as §1
# [2] = molecular target: Gal(a1-3)Gal(b1-4)GlcNAc(b1-2)Man(a1-3)[Gal(a1-3)Gal(b1-4)GlcNAc(b1-2)Man(a1-6)]Man(b1-4)GlcNAc(b1-4)GlcNAc
# Outline: as §1
# [3] = molecular target: Gal(a1-3)Gal(b1-4)GlcNAc(b1-3)GalNAc
# Outline: as §1
# [4] = molecular target: Gal(a1-3)Gal(b1-4)GlcNAc(b1-6)GalNAc
# Outline: as §1
# [5] = molecular target: Gal(a1-3)Gal(b1-4)[Fuc(a1-3)]GlcNAc
# Outline: as §1
# [6] = molecular target: Gal(a1-3)Gal(b1-4)[Fuc(a1-3)]GlcNAc(b1-2)Man(a1-3)[Gal(a1-3)Gal(b1-4)[Fuc(a1-3)]GlcNAc(b1-2)Man(a1-6)]Man(b1-4)GlcNAc(b1-4)GlcNAc
# Outline: as §1
# Gal(a1-3)GalNAc = molecular target: Gal(a1-3)GalNAc
# Outline: as §1
# [7] = molecular target: Gal(a1-3)[Gal(a1-4)]Gal(b1-4)GlcNAc
# Outline: as §1
# [8] = molecular target: Gal(a1-4)Gal(b1-3)GlcNAc(b1-2)Man(a1-3)[Gal(a1-4)Gal(b1-3)GlcNAc(b1-2)Man(a1-6)]Man(b1-4)GlcNAc(b1-4)GlcNAc
# Outline: as §1
# Gal(a1-4)Gal(b1-4)Glc = molecular target: Gal(a1-4)Gal(b1-4)Glc
# Outline: as §1
# Gal(a1-4)Gal(b1-4)GlcNAc = molecular target: Gal(a1-4)Gal(b1-4)GlcNAc
# Outline: as §1
# [9] = molecular target: Gal(a1-4)Gal(b1-4)GlcNAc(b1-2)Man(a1-3)[Gal(a1-4)Gal(b1-4)GlcNAc(b1-2)Man(a1-6)]Man(b1-4)GlcNAc(b1-4)GlcNAc
# Outline: as §1
# [10] = molecular target: Gal(a1-4)Gal(b1-4)GlcNAc(b1-3)Gal(b1-4)Glc
# Outline: as §1
# Gal(a1-4)GlcNAc = molecular target: Gal(a1-4)GlcNAc
# Outline: as §1
# Gal(a1-6)Glc = molecular target: Gal(a1-6)Glc
# Outline: as §1
# Gal(b1-2)Gal = molecular target: Gal(b1-2)Gal
# Outline: as §1
# Gal(b1-3)Gal = molecular target: Gal(b1-3)Gal
# Outline: as §1
# Gal(b1-3)Gal(b1-4)GlcNAc = molecular target: Gal(b1-3)Gal(b1-4)GlcNAc
# Outline: as §1
# Gal(b1-3)GalNAc = molecular target: Gal(b1-3)GalNAc
# Outline: as §1
# [11] = molecular target: Gal(b1-3)GalNAc(a1-3)[Fuc(a1-2)]Gal(b1-4)Glc
# Outline: as §1
# [12] = molecular target: Gal(b1-3)GalNAc(a1-3)[Fuc(a1-2)]Gal(b1-4)GlcNAc
# Outline: as §1
# Gal(b1-3)GalNAc(b1-3)Gal = molecular target: Gal(b1-3)GalNAc(b1-3)Gal
# Outline: as §1
# [13] = molecular target: Gal(b1-3)GalNAc(b1-3)Gal(a1-4)Gal(b1-4)Glc
# Outline: as §1
# [14] = molecular target: Gal(b1-3)GalNAc(b1-4)Gal(b1-4)Glc
# Outline: as §1
# [15] = molecular target: Gal(b1-3)GalNAc(b1-4)[Neu5Ac(a2-3)]Gal(b1-4)Glc
# Outline: as §1
# Gal(b1-3)GlcNAc = molecular target: Gal(b1-3)GlcNAc
# Outline: as §1
# [16] = molecular target: Gal(b1-3)GlcNAc(a1-3)Gal(b1-4)GlcNAc
# Outline: as §1
# [17] = molecular target: Gal(b1-3)GlcNAc(a1-6)Gal(b1-4)GlcNAc
# Outline: as §1
# Gal(b1-3)GlcNAc(b1-2)Man = molecular target: Gal(b1-3)GlcNAc(b1-2)Man
# Outline: as §1
# [18] = molecular target: Gal(b1-3)GlcNAc(b1-2)Man(a1-3)[Gal(b1-3)GlcNAc(b1-2)Man(a1-6)]Man(b1-4)GlcNAc(b1-4)GlcNAc
# Outline: as §1
# [19] = molecular target: Gal(b1-3)GlcNAc(b1-2)Man(a1-3)[Gal(b1-3)GlcNAc(b1-2)Man(a1-6)]Man(b1-4)GlcNAc(b1-4)[Fuc(a1-6)]GlcNAc
# Outline: as §1
# [20] = molecular target: Gal(b1-3)GlcNAc(b1-2)Man(a1-3)[GlcNAc(b1-4)][Gal(b1-3)GlcNAc(b1-2)Man(a1-6)]Man(b1-4)GlcNAc(b1-4)GlcNAc
# Outline: as §1
# [21] = molecular target: Gal(b1-3)GlcNAc(b1-2)[Gal(b1-3)GlcNAc(b1-6)]Man(a1-6)[Gal(b1-3)GlcNAc(b1-2)Man(a1-3)]Man(b1-4)GlcNAc(b1-4)GlcNAc
# Outline: as §1
# [22] = molecular target: Gal(b1-3)GlcNAc(b1-3)Gal(b1-3)GlcNAc
# Outline: as §1
# [23] = molecular target: Gal(b1-3)GlcNAc(b1-3)Gal(b1-4)Glc
# Outline: as §1
# [24] = molecular target: Gal(b1-3)GlcNAc(b1-3)Gal(b1-4)GlcNAc
# Outline: as §1
binder,measurement,setting,value
B1,glycan array binding signal (z-score),Gal(a1-3)Gal(b1-4)GlcNAc,-0.319
same,glycan array binding signal (z-score),[1],-0.294
same,glycan array binding signal (z-score),[2],-0.29
same,glycan array binding signal (z-score),[3],-0.323
same,glycan array binding signal (z-score),[4],-0.265
same,glycan array binding signal (z-score),[5],0.237
same,glycan array binding signal (z-score),[6],-0.027
same,glycan array binding signal (z-score),Gal(a1-3)GalNAc,-0.317
same,glycan array binding signal (z-score),[7],-0.309
same,glycan array binding signal (z-score),[8],-0.308
same,glycan array binding signal (z-score),Gal(a1-4)Gal(b1-4)Glc,-0.314
same,glycan array binding signal (z-score),Gal(a1-4)Gal(b1-4)GlcNAc,-0.315
same,glycan array binding signal (z-score),[9],-0.259
same,glycan array binding signal (z-score),[10],-0.318
same,glycan array binding signal (z-score),Gal(a1-4)GlcNAc,-0.313
same,glycan array binding signal (z-score),Gal(a1-6)Glc,-0.31
same,glycan array binding signal (z-score),Gal(b1-2)Gal,-0.302
same,glycan array binding signal (z-score),Gal(b1-3)Gal,-0.301
same,glycan array binding signal (z-score),Gal(b1-3)Gal(b1-4)GlcNAc,-0.317
same,glycan array binding signal (z-score),Gal(b1-3)GalNAc,-0.313
same,glycan array binding signal (z-score),[11],-0.303
same,glycan array binding signal (z-score),[12],-0.317
same,glycan array binding signal (z-score),Gal(b1-3)GalNAc(b1-3)Gal,-0.297
same,glycan array binding signal (z-score),[13],-0.313
same,glycan array binding signal (z-score),[14],-0.314
same,glycan array binding signal (z-score),[15],-0.317
same,glycan array binding signal (z-score),Gal(b1-3)GlcNAc,-0.326
same,glycan array binding signal (z-score),[16],-0.303
same,glycan array binding signal (z-score),[17],-0.324
same,glycan array binding signal (z-score),Gal(b1-3)GlcNAc(b1-2)Man,-0.281
same,glycan array binding signal (z-score),[18],-0.301
same,glycan array binding signal (z-score),[19],-0.178
same,glycan array binding signal (z-score),[20],-0.26
same,glycan array binding signal (z-score),[21],-0.296
same,glycan array binding signal (z-score),[22],-0.313
same,glycan array binding signal (z-score),[23],-0.273
same,glycan array binding signal (z-score),[24],-0.309
